According to PubChem BioAssay AID1745853 (National Center for Advancing Translational Sciences (NCATS), 2022):
This is one part of the list. Shown are side measurements of this screen, not its main read-out; they come without a call.

Experiments:
Assay in all cases: Primary Screen for Target Class Profiling of Small Molecule Inhibitors of Methyltransferases
[1] = target: Glycine N-methyltransferase (Homo sapiens) (UniProt Q14749); conditions: purified enzyme, MTase-Glo SAH luminescence; measured here: GNMT inhibition; at 40 µM; stronger effect = lower value
Description: (§1) PI: Matthew D. Hall Ph.D. and Quinlin M. Hanson Ph.D.
(§2) National Center for Advancing Translational Sciences (NCATS)
(§3) National Institute of Health (NIH), Rockville, MD
(§4) Target class profiling (TCP) is a chemical biology approach amenable to investigating understudied biological targets. TCP is achieved by developing a generalizable assay platform and applying it to screen a curated set of compound libraries against representative members of a target class. Small molecule methyltransferases (SMMTase) are a subclass of methyltransferase that act on metabolites to modulate signaling pathways, metabolize xenobiotics, or balance the available methyl pool. We screened four curated libraries totaling 27,574 unique compounds against the SMMTases nicotinamide N-methyltransferase (NNMT), phenylethanolamine N-methyltransferase (PNMT), histamine N-methyltransferase (HNMT), glycine N-methyltransferase (GNMT), catechol O-methyltransferase (COMT), and guanidinoacetate N-methyltransferase (GAMT). The data generated by this TCP can be leveraged for informed tool molecule development. For example, in the associated publication we identified a chemotype of HNMT-selective inhibitors. Additionally, we identified a putative SMMTase-selective inhibitor with potential as a tool molecule for studying broader methyltransferase biology.
(§5) High-through put screening assays were developed at the National Center for Advancing Translational Science (NCATS) for the enzymes NNMT, PNMT, HNMT, GNMT, COMT, and GAMT. Enzymatic activity was measured as a function of SAM cofactor conversion using the MTase Glo kit (Promega) for all enzymes. All assays were performed in 1536-well format with substrates and SAM concentrations at KM values. Enzyme concentration and assay timing were optimized for 10-20% SAM conversion. Initial screening of 27,574 compounds was done as single-point assays using the highest compound concentration (40 uM). […] These compounds were replated in 11-point dose response and assayed against NNMT, PNMT, HNMT, GNMT, COMT, GAMT, and a counter-assay. The IC50 and efficacy (maximal response) values were determined for each dose-response curve. These values are also accounted for in the area under the curve (AUC) values.
(§6) PROTOCOL TABLE (as described by Inglese J, Shamu CE and Guy RK. 2007)
(§7) SEQUENCE No. (e.g., 1, 2, 3, etc.); […] (e.g., Cells, Incubation, Reagent, etc.); VALUE; DESCRIPTION.
(§8) 1; Reagent; 2 uL; SMMTase Enzyme (2x) in reaction buffer, columns 1- 48.
(§9) 2; Reagent; 1 uL; SAM (4x) in reaction buffer, columns 1-48.
(§10) 3; Controls; 23 nL; DMSO in column 4; sinefungin in DMSO (0 uM - 40 uM) in 7-point 1:2 dilution series (n = 2) in column 2.
(§11) 4; Compounds; 23 nL; Columns 5-48.
(§12) 5; Reagent; 1 uL; Substrate (4x) in reaction buffer, columns 2-48.
(§13) 6; Time; 20-30 min; Incubation.
(§14) 7; Reagent; 1 uL; MTase-Glo reagent (5X), columns 1-48.
(§15) 8; Time; 30 min; Incubation.
(§16) 9; Reagent; 5 uL; MTase-Glo Detection reagent, columns 1-48.
(§17) 10; Time; 30 min; Incubation, luminescence evolution.
(§18) 11; Detection; Luminescence; ViewLux uHTS Microplate Imager (PerkinElmer).
(§19) NOTES (numbers refer to Sequence numbers above)
(§20) 1, 2, 5. White Medium Binding Greiner 1536-well plates (Cat #789175-F, Greiner Bio-One, Monroe, NC); Reaction buffer: 50 mM Tris, pH 8.0, 3 mM MgCl2, 1 mM EDTA, 50 mM NaCl, 1 mM DTT, and 0.1 mg/mL BSA. Evaporation was prevented by covering assay plates with metal lids containing holes to allow gas diffusion.
(§21) 1. Six SMMTase were profiled: HNMT, GNMT, PNMT, COMT, NNMT, GAMT
(§22) 5. The corresponding substrate was used for each enzyme: HNMT - 5.3 uM Histamine; GNMT - >500 uM Glycine; PNMT - 16.2 uM Norephinephrine; COMT - 13.7 uM Norephinephrine; NNMT - 3.8 uM Nicotinamide; GAMT - 2.5 uM Guanidinoacetate.6, 8, 10. Room temperature
(§23) 6. Final reaction conditions: 10 nM COMT, 5 uM SAM, 15 uM norepinephrine, 50 mM Tris, pH 8.0, 3 mM MgCl2, 1 mM EDTA, 50 mM NaCl, 1 mM DTT, and 0.1 mg/mL BSA; refer to tables 2 and S1 for specific timing.
8. […]

[2] = target: Guanidinoacetate N-methyltransferase (Homo sapiens) (UniProt Q14353); conditions: purified enzyme, MTase-Glo SAH luminescence; measured here: GAMT inhibition; at 40 µM; stronger effect = lower value
Description: as §1, §2, §3, §4, §5, §6, §7, §8, §9, §10, §11, §12, §13, §14, §15, §16, §17, §18, §19, §20, §21, §22, §23
8. […]

[3] = target: Histamine N-methyltransferase (Homo sapiens) (UniProt P50135); conditions: purified enzyme, MTase-Glo SAH luminescence; measured here: HNMT inhibition; at 40 µM; stronger effect = lower value
Description: as §1, §2, §3, §4, §5, §6, §7, §8, §9, §10, §11, §12, §13, §14, §15, §16, §17, §18, §19, §20, §21, §22, §23
8. […]

[4] = target: Nicotinamide N-methyltransferase (Homo sapiens) (UniProt P40261); conditions: purified enzyme, MTase-Glo SAH luminescence; measured here: NNMT inhibition; at 40 µM; stronger effect = lower value
Description: as §1, §2, §3, §4, §5, §6, §7, §8, §9, §10, §11, §12, §13, §14, §15, §16, §17, §18, §19, §20, §21, §22, §23
8. […]

[5] = target: Phenylethanolamine N-methyltransferase (Homo sapiens) (UniProt P11086); conditions: purified enzyme, MTase-Glo SAH luminescence; measured here: PNMT inhibition; at 40 µM; stronger effect = lower value
Description: as §1, §2, §3, §4, §5, §6, §7, §8, §9, §10, §11, §12, §13, §14, §15, §16, §17, §18, §19, §20, §21, §22, §23
8. […]
% is scaled to controls: 0 for no effect and ±100 for the full control effect.

SMILES	activity change, negative = inhibition [1]	activity change, negative = inhibition [2]	activity change, negative = inhibition [3]	activity change, negative = inhibition [4]	activity change, negative = inhibition [5]
CCOc1nc2cccc(C(=O)O)c2n1Cc1ccc(-c2ccccc2-c2noc(=O)[nH]2)cc1	-7.81%	-8.9%	5.34%	-19.6%	-2.84%
O=C(NCc1ccccc1)c1ccc2c(=O)nc3c(-c4ccc(Cl)cc4)n[nH]n3c2c1	-9.28%	-1.19%	-0.94%	-15.4%	-4.78%
CCOC(=O)c1cc2n(n1)CC(C)(C(=O)NC1CCCC1)N(c1cc(C)cc(C)c1)C2=O (stereo not given)	2.4%	0.487%	3.6%	5.72%	2.8%
CCOC(=O)c1cc2n(n1)CC(C)(C(=O)NC1CCCCC1)N(c1cccc(Cl)c1C)C2=O (stereo not given)	-0.814%	4.72%	-4.6%	3.88%	1.24%
O=C(CC[C@@H]1CNC(=O)[C@@H]2C[C@H](NCc3ccccn3)CN12)NCc1ccccc1	-12%	-8.52%	-4.21%	-14.3%	-13.3%
COc1cccc2c1OCCCN(Cc1cn(-c3ccccc3)nn1)C2	-1.98%	-0.56%	-2.74%	-0.237%	-0.629%
COc1ccc(CN2CCCC3(Cc4ccccc4CNC3=O)C2)c(OC)n1 (stereo not given)	-4.02%	-4.31%	-12.8%	-8.68%	-5.05%
CCC(CC)NC(=O)[C@@H]1COCC(=O)N1Cc1ccc(OC)cc1OC	-1.35%	0.692%	1.05%	-2.2%	-0.224%
COCCOC(=O)C1=C(C)NC(C)=C(C(=O)OC/C=C/c2ccccc2)C1c1cccc([N+](=O)[O-])c1 (stereo not given)	-3.1%	10.5%	8.83%	-10.4%	-1.38%
O=C(NCCCc1ccccc1)C1CCC(CNS(=O)(=O)c2cccc3nsnc23)CC1 (stereo not given)	-7.5%	-8.71%	-4.15%	-28.4%	-12.6%
Cc1cccc(NC(=O)CSc2nnc3[nH]c(=O)c(C(C)(C)C)nn23)c1	9.68%	1.85%	6.08%	0.657%	-0.48%
C=C(C)C1CCC(C)C12CC(O)C1(C)OC1C2OC(=O)C(N)CCC(=O)O (stereo not given)	1.74%	-0.081%	11.3%	-12.1%	-8.62%
O=C(Cn1nc2nc(Nc3ccc(F)cc3)ccn2c1=O)Nc1cc(F)cc(F)c1	0.653%	0%	5.04%	-5.55%	3.16%
COc1ccccc1CNC(=O)C1(C)Cn2nc(-c3ccccc3)cc2C(=O)N1c1cccc(Cl)c1C (stereo not given)	7.4%	0%	6.54%	9.38%	2.99%
COCCNC(=O)N1CCCC(CNC(=O)c2cccc3ccccc23)C1 (stereo not given)	-5.7%	-5.22%	-0.748%	-9.53%	2.74%
CCc1nc(NCCOC)ncc1C(=O)O	-1.93%	-0.681%	1.02%	-5.39%	-2.71%

SMILES	activity change, negative = inhibition [1]	activity change, negative = inhibition [2]	activity change, negative = inhibition [3]	activity change, negative = inhibition [4]	activity change, negative = inhibition [5]
CS(=O)(=O)c1ccc(OCC2(CNCc3cccc(C(F)(F)F)c3)C[C@@H](O)[C@@H](O)C2)cc1 (stereo not given in full)	-3.69%	-2.15%	-0.777%	-7.36%	2.02%
COC1C(=O)N(c2cccc(F)c2)C12CCN(S(=O)(=O)c1cccs1)CC2 (stereo not given)	-8.54%	-4.61%	-3.16%	-13.1%	-2.12%
Cc1ccc2[nH]c(=O)c(CCC(=O)NCc3ccco3)cc2c1	-17.6%	1.15%	1.92%	-5.31%	-11.3%
C=C(C)[C@@]1(O)C[C@@]2(C)C(=CC1=O)CC[C@@H](O)[C@@H]2C	0%	3.52%	3.72%	-9.15%	5.42%
COc1ccc(OCC(O)CN2CCC(=O)N(CC3CC3)Cc3cc(OC)ccc32)cc1 (stereo not given)	-4.44%	1.08%	-0.247%	-13.2%	-1.25%
CCN1C(=O)CCc2cc(NS(=O)(=O)c3cn(C)c(C)n3)ccc21	-2.35%	1.09%	-3.1%	-0.419%	-1.39%
CCOCCCN1C(=O)c2ccc(-c3ccco3)n2CC1(C)C(=O)NC1CCCC1 (stereo not given)	-2.3%	4.62%	2.27%	6.63%	-0.16%
CCCCCOc1ccc2c(-c3ccccc3)cc(=O)oc2c1	-5.71%	0%	0.207%	0.395%	-8.35%
Cc1cc(C)cc(C(=O)NOCCCCCC(=O)NO)c1	0.463%	5.12%	9.05%	-6.15%	5.29%
CN1C(=O)c2cc(C(=O)NCCc3ccco3)nn2CC1(C)C(=O)NCc1ccccc1 (stereo not given)	2.19%	0%	0.993%	8.34%	2.5%
CCCN1C(=O)c2cc(C(=O)NCc3ccco3)nn2CC1(C)C(=O)NC1CCCC1 (stereo not given)	5.85%	0.557%	3.66%	4.98%	2.22%
CCC(C(=O)N1CCc2onc(-c3ccc(F)c(F)c3)c2C1)n1cccn1 (stereo not given)	-0.483%	0.312%	2.37%	-6.67%	3.69%
CCOc1ccc(CN2C(=O)c3ccc(-c4ccco4)n3CC2(C)C(=O)NC2CCCCC2C)cc1 (stereo not given)	-8.31%	0%	0.936%	-17%	-1.25%
CCn1nc(C(=O)O)c(=O)c2cc3c(cc21)OCO3	-7.58%	2.46%	-1.94%	-4.4%	7.26%
CN(Cc1ccc(-n2cccn2)cc1)Cc1nc(Cc2cccc(F)c2)no1	-1.98%	0.24%	1.69%	-0.601%	-4.03%
